The values below come from PubChem BioAssay AID488969 (Vanderbilt High Throughput Screening Facility, 2010).

The full ranking holds about 110,000 compounds; the median of “z-score” is about -0.1, and the highest 2% start at about 2. This is one part of the list. Active and inactive are the calls of the source.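 The calls were made as follows: active = z-score in the third read window above 3 or below -3; inactive = the rest.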

This experiment concerns the target Metabotropic glutamate receptor 8 (Rattus norvegicus) (UniProt P70579). Put plainly: mGluR8 Gi/Go-coupled signaling modulation – cell-based, rat, thallium flux, HTS, primary screen (AID 488969). The following applies: HEK293 rat mGluR8, GIRK (G protein-gated inwardly rectifying potassium channel) thallium flux, FluoZin2; at 10 µM; stronger effect = higher value; submaximal glutamate (EC20) added with thallium.
Sequence of UniProt P70579 (P70579 whole entry, looked up): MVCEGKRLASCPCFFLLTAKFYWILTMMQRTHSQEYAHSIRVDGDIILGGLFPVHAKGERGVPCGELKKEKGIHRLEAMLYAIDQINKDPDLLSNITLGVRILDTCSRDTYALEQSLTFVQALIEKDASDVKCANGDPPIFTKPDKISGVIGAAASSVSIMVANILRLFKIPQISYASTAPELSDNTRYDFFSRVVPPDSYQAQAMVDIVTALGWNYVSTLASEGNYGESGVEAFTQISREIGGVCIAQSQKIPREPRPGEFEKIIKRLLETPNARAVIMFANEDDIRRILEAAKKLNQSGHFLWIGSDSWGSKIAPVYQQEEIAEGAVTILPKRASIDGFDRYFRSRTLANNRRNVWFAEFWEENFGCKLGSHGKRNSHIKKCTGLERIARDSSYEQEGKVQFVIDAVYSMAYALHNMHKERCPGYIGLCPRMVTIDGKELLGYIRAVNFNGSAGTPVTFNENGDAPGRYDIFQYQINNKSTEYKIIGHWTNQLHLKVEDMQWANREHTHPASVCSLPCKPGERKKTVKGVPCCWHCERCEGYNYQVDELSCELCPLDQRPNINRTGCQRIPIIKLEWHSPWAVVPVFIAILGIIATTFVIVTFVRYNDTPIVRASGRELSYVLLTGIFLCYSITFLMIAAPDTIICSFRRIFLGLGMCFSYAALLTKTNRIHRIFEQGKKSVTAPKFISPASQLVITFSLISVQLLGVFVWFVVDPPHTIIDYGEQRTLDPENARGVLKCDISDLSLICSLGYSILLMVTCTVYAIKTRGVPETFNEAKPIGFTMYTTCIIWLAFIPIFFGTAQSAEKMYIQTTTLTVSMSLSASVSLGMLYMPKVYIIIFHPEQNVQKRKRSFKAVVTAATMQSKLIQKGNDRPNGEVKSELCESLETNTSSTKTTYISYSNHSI
`COC(=O)c1ccccc1NC(=O)NCc1cccnc1` returned a z-score of 1.03.
Next, `NC(=O)COC(=O)c1ccc(Oc2ccccc2)cc1`: 0.0036; `O=C1C2CCCCC2C(=O)N1c1ccc(NC2CCCCC2)c([N+](=O)[O-])c1` (stereo unspecified): -0.205; `CCc1ccccc1NC(=O)CC1CS(=O)(=O)CC1CC(=O)Nc1ccccc1CC` (stereo unspecified): -0.13.
Regarding `O=C(O)c1cccc(N2CCCC2=O)c1`, the z-score is -0.211.
Next, `O=C(Nc1cccc(-c2nnn(CC(=O)N3CCc4ccccc4C3)n2)c1)C1CCC1`: -0.621; `COc1cc(NC(=O)CN2CCN(c3ccccc3O)CC2)c(C)cc1[N+](=O)[O-]`: -0.0254.
Next, `CCN1CCCC(NC(=O)c2cc([N+](=O)[O-])ccc2OC)C1` (stereo unspecified): -0.00139; `COc1ccc(-c2noc(CCC(=O)N3CCN(c4cc(C)ccc4C)CC3)n2)cc1`: -0.192.
The value for `O=C(NCCOc1nc(N2CCCCC2)nc(N2CCOCC2)n1)Nc1ccccc1` was -0.56; that for `O=C(Cc1ccccc1)NCCCN1CCN(CCCNC(=O)Cc2ccccc2)CC1` was 0.0812.
Turning to `COc1ccc(CCNC(=O)c2ccc(CN3CCC(Cc4ccccc4)CC3)cc2)cc1OC`, the z-score was found to be 0.37.
Next, `Nc1cc(CN2C(=O)c3ccccc3C2=O)cc(Cl)c1O`: -0.0748; `COc1ccc(/C=N/OC/C(O)=C(\C#N)c2nc3ccccc3[nH]2)cc1OC`: 0.06.
As for `O=C1/C(=C/N(C(=O)c2ccco2)c2ccc(Cl)cc2)Sc2ccccc21`, the z-score was -0.348.
The value for `COc1ccc(/C(O)=C2/C(=O)C(=O)N(CCCN(C)C)C2c2ccc(Cl)cc2)cc1OC` (stereo unspecified) was 0.00098.
The value for `COc1cccc(N2CCN(c3ncnc4c3cnn4-c3ccc(C)cc3C)CC2)c1` was 0.0229.
Next, `Cc1csc(NC(=O)c2cc(-c3ccccc3)nc3ccccc23)n1`: -0.426.
As for `Cc1c(-c2ccccc2)oc2c(C(=O)N3CCN(c4ccc([N+](=O)[O-])cc4)CC3)cccc2c1=O`, the z-score was -0.651.
`CCOc1ccccc1-n1c(SCC(=O)NC2CCCC2)nnc1-c1ccoc1C`: the z-score is -0.387.
`O=C(O)CC/C(=N\Nc1ccc(S(=O)(=O)N2CCCC2)cc1[N+](=O)[O-])c1cccs1` displayed a z-score of -0.648.
Next, `CN1CCN(C(=O)c2ccccc2NC(=O)CCN2C(=O)c3ccccc3C2=O)CC1`: -0.0823; `CCc1ccccc1NC(=S)NC1CC2CCCC(C1)N2Cc1cccs1` (stereo unspecified): -0.211; `CSc1nsc(/C=C/Nc2cccc(Cl)c2)c1C#N`: 0.84.
The value for `CCCC(=O)Nc1ccc2c(c1)nc1n2CCOC1` was -0.399.
The value for `S=C1NC(c2ccccc2)N2C(=S)NC(c3ccccc3)N12` (stereo unspecified) was -1.08; that for `CCOC(=O)c1cnc(SCC(=O)Nc2nc(C)c(C)s2)nc1N` was active: 3.65; that for `CCn1c(-c2cc3ccccc3cc2O)n[nH]c1=S` was 2.62.
In the case of `COc1ccc2nc(SCC(=O)Nc3c(C)cccc3C)[nH]c2c1`, the z-score came to 0.153.
The value for `COc1ccc(C2C(C(C)=O)=C(O)C(=O)N2c2nccs2)cc1OC` (stereo unspecified) was -0.189; that for `CCOC(=O)COc1ccc(S(=O)(=O)N2CCN(C(=O)OCC)CC2)cc1` was 0.268.
Next, `Cn1c(=O)c2c(nc(N/N=C/c3cccs3)n2Cc2ccc(Br)cc2)n(C)c1=O`: -0.365; `COc1cccc2c(=O)c3c(cnn3C)n(C)c12`: -0.286; `O=C(NCc1ccccc1)c1ccc2nccnc2c1`: -0.133.
Next, `Cc1nc2ccccc2n1CC(=O)N/N=C\C=C\c1ccccc1`: -0.388; `COc1ccc(-n2ncc3c(NCCN4CCOCC4)ncnc32)cc1`: -0.0701.
In the case of `CC(C)c1nnc(NC(=O)CCC(=O)NC2CCCCCCC2)s1`, the z-score came to 0.041.
Next, `CC(=O)c1c(N)[nH]c(-c2ccccc2)nc1=S`: 1.28; `Cc1cccc2sc(NC(=O)c3cccc(S(=O)(=O)N4CCc5ccccc54)c3)nc12`: -0.141.
The value for `COc1ccc(NC(=S)N2CCNC(=O)C2CC(=O)Nc2ccc(C)cc2)cc1` (stereo unspecified) was -0.0767.
Next, `CCN(CC)S(=O)(=O)c1ccc2[nH]cc(C(=O)NCCCN3CCCCC3C)c(=O)c2c1` (stereo unspecified): 0.337; `CCOc1ccc(C2=NNC(c3cccs3)=Nc3ccc(OC)cc32)cc1OCC`: -0.0395; `Cc1cc(/C=N/NC(=O)C(O)(c2ccccc2)c2ccccc2)c(C)n1-c1ccccc1`: -0.284.
In turn, `Cc1ccc(SC(C)c2nc(-c3ccccc3)no2)cc1` (stereo unspecified) had a z-score of 0.587.
The value for `C/C(=N\NC(=O)c1c[nH]c2ccccc12)c1ccco1` was -0.682.
Next, `CCOC(=O)C1=C(C)NC(=O)NC1c1ccc(OC)c(CN2CCOCC2)c1` (stereo unspecified): 0.00374; `Cc1c(C(=O)NC(C)CN2CCCCC2)oc2ccccc12` (stereo unspecified): 0.31.
Next, `COc1ccc(NS(=O)(=O)c2cccc(C(=O)N/N=C(\C)c3ccc(-n4ccnc4)cc3)c2)cc1`: -0.435; `CCCCNC(=O)C1CCN(C/C(C)=C/c2ccccc2)CC1`: -0.643.
`Cc1ccc(-c2nnc(C)c(N3CC(C)OC(C)C3)n2)cc1` (stereo unspecified) returned a z-score of -0.288.
For the compound `COc1cc(NS(=O)(=O)c2ccccc2)ccc1-n1nc(C)cc1C`, the z-score amounted to 0.193.
Next, `O=C1NN(c2ccccc2)C(=O)C2C3C=CC(C4CC34)C12` (stereo unspecified): -0.056.
Compound `CCOC(=O)C1CCN(C(=O)Nc2ccc3c(c2)nc(C)n3C)CC1` had a z-score of 0.0618.
Next, `O=c1[nH]n(-c2ccc(Cl)cc2)c2ncccc12`: -0.246; `Cc1ccc(S(C)(=O)=O)cc1S(=O)(=O)Nc1cccc(Cl)c1`: -0.058.
Next, `CCN=C1Sc2nc3ccc(OCC)cc3cc2CN1CCOC`: -0.4; `COc1ccc(C2C(C(=O)N3CCCC3)c3cc(OC)c(OC)cc3C(=O)N2C)cc1` (stereo unspecified): 0.053; `CCNC(=S)NS(=O)(=O)c1ccccc1`: -0.195.
`Cc1cc(Br)ccc1NC(=O)CCN1C(=O)c2ccncc2C1=O` returned a z-score of -0.249.
The value for `CCOC(=O)CCc1c(C)c(C#N)c2[nH]c3ccccc3n2c1=O` was -0.404; that for `C=CCn1c(SCC(=O)Nc2c(C)n(C)n(-c3ccccc3)c2=O)nc2sc(C)c(-c3ccccc3)c2c1=O` was -0.378.
The value for `Cc1nc2sc(C(c3ccccc3)N3CCN(c4ccccc4F)CC3)c(O)n2n1` (stereo unspecified) was 0.377; that for `O=C(CCNC(=O)Cn1ccc2ccccc2c1=O)NCCN1CCN(c2ccccc2F)CC1` was 0.157.
The value for `CC1(C)CC(=O)C(C=NCCN2CCN(C(=O)c3ccc(F)cc3)CC2)=C(O)C1` was -0.279.
In turn, `CCOC(=O)C(CCCOc1ccccc1)C(=O)OCC` came in with a z-score of -0.00633.
The value for `CNC(=O)CN(c1cccc2ccccc12)S(C)(=O)=O` was 0.105; that for `Cc1ccc(C)c(C(=O)O/N=C(\N)c2ccc(Br)cc2)c1` was -0.197.
The value for `CN(C)CCN1C(=O)C(O)=C(C(=O)c2ccco2)C1c1ccccc1F` (stereo unspecified) was -0.227; that for `Cc1nn(C(C)C(=O)NNC(=S)Nc2ccc(F)cc2)c(C)c1[N+](=O)[O-]` (stereo unspecified) was -0.385.
Next, `COc1ccccc1N1CCN(S(=O)(=O)c2cccc3nsnc23)CC1`: -0.393; `C=CCSC1=N/C(=C\c2cc(OCC)c(OC(C)=O)c([N+](=O)[O-])c2)C(=O)S1`: -0.399; `CCOC(=O)Cc1csc(NC(=O)C(C)(C)CC)n1`: 0.0749.
As to `CCC(C)n1nnc2c(=O)oc3ccccc3c21` (stereo unspecified), the z-score was -1.17.
The compound `Cc1cc2cc(CN(Cc3ccco3)C(=O)C3CCCCC3)c(=O)[nH]c2cc1C` had a z-score of 0.00998.
Next, `Cc1cccc(C(=O)NNC(=O)c2cc3cc4ccccc4nc3s2)c1`: 0.153; `COc1ccc(-c2nc(C)c(C(C)=O)n2O)cc1OC`: 0.246; `O=C1CCCN1CCC1CCN(C2CC(=O)N(c3ccc(F)cc3)C2=O)CC1` (stereo unspecified): 0.0802.
`O=C(NC1CCCC1)C(c1ccc(Cl)cc1)N1CCc2ccccc21` (stereo unspecified) displayed a z-score of -0.145.
Next, `O=C(Nc1cc2c(oc1=O)CCCC2=O)c1cccc(Cl)c1`: -0.0638; `O=C(CCCC(=O)N1CCN(c2ccccc2F)CC1)N1CCN(c2ccccc2F)CC1`: -0.439.
Next, `Cn1c(NCc2ccco2)nc2c1c(=O)n(Cc1ccc(Cl)cc1Cl)c(=O)n2C`: -0.0469; `COc1ccc(S(=O)(=O)CCC(=O)Nc2ccc(OC)cc2OC)cc1`: 0.237.
The value for `Cc1cc(NC(=O)CSc2n[nH]c(CC(C)C)n2)no1` was -0.199.
The compound `Cc1cccc(-n2c(=O)cc(N3CCN(c4ccc(F)cc4)CC3)[nH]c2=O)c1` returned a z-score of 0.0796.
For `CC(=O)/C=C\c1cn(-c2ncc(C(F)(F)F)cc2Cl)c2ccccc12`, the z-score is -0.119.
`CC(C)CC(C(=O)OCC(=O)c1c(N)n(C)c(=O)n(C)c1=O)N1C(=O)c2ccccc2C1=O` (stereo unspecified) showed a z-score of -0.0745.
In turn, `O=C1c2cccnc2C(Nc2ccc(S(=O)(=O)N3CCCCC3)cc2)N1Cc1ccccc1` (stereo unspecified) had a z-score of 0.26.
With `COc1ccc(C(=O)/C=C/C(=O)N(Cc2ccccc2OC)C(C(=O)NC2CCCCC2)c2ccncc2)c(O)c1` (stereo unspecified), the z-score was -0.0916.
Next, `C/C(=N/NC(=O)CN1CCN(Cc2ccccc2Cl)CC1)c1ccncc1`: -0.146; `Cc1cc(C)n2nc(SCC(=O)N(C)Cc3ccccc3)nc2n1`: 0.342; `N#CC1=C(N)Oc2cc3ccccc3cc2C1c1cccnc1` (stereo unspecified): -0.804.
Next, `O=c1/c(=C/c2ccc(O)cc2)sc2n1CCCN=2`: -0.159.
Next, `Cc1ccc(CCNC(=O)CN(C)S(=O)(=O)c2ccc3c(c2)c(=O)n(C)c(=O)n3C)cc1`: -0.023.
In turn, `CCc1nnc(NC(=O)c2nc3nc(C)cc(C)n3n2)s1` showed a z-score of 0.337.
Next, `O=C(CSc1nnc(NC(=O)c2ccccc2Cl)s1)Nc1ccc2c(c1)oc1ccccc12`: -0.889; `CCC(C)NC(=O)CCn1c(-c2ccccc2)cc(C(C)=O)c1C` (stereo unspecified): -0.179.
The value for `OCc1nc(CO)n(Cc2ccccc2)n1` was -0.375; that for `O=C(Nc1ccc(S(=O)(=O)Nc2nccs2)cc1)/C(=C/c1ccccc1Cl)NC(=O)c1ccccc1` was -0.137.
The value for `COC(=O)C1C(=O)CC(C)(O)C(C(=O)OC)C1c1ccc2c(c1)OCO2` (stereo unspecified) was 0.446; that for `O=C(O)Cc1ccc2[nH]c3ccc(CC(=O)O)cc3c2c1` was 0.103.
As to `CCOC(=O)C1=C(C)N(C)C(=O)NC1c1c(C)nn(-c2ccc(C)cc2)c1Cl` (stereo unspecified), the z-score is -0.228.
In the case of `COCCCN1Cc2cccc(C(=O)O)c2C1=O`, the z-score was 0.334.
Next, `Cc1ccc(NC(=O)N(Cc2cccnc2)Cc2ccco2)cc1C`: 0.0528; `O=C(CN(Cc1ccco1)C(=O)CCC(=O)Nc1nccs1)NCc1ccccc1`: -0.046; `COc1ccc(NC(=O)CSc2nnnn2-c2ccc(OC)cc2)cc1`: -0.291.
For the compound `CN1CCN(C(=O)CC23CC4CC(CC(C4)C2)C3)CC1`, the z-score came out at 0.00881.
